{
  "source": "the supplement of paper PMC8728848",
  "binders": {"B1": {"name": "LecB PA7 (Pseudomonas aeruginosa) (protein)", "chain": "MATQGVFTLPANTRFGVTAFANSSATQTVKVLVNNETAATFTGQSTNNAVIGSQVLNSGGGGKVQIQVSVNGRSSDLVSAQVILANELNVALVGSEDSTDNDYNDAVVVINWPLG"}},
  "test_in_all_cases": "glycan array binding signal (z-score within array); higher = stronger binding",
  "conditions_in_all_cases": "glycan notation: IUPAC condensed, linker removed",
  "key": {"[1]": {"target": "Neu5Ac(a2-3)Gal(b1-4)GlcNAc(b1-6)GalNAc", "how_it_was_run": "(§1)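 The binding signal is a Z-score computed within each array. Data were drawn from 3228 arrays in the Consortium for Functional Glycomics database, restricted to those with a known protein sequence. Scores were averaged over arrays of the same protein sequence at different concentrations or buffers, and over linkers, and negative values can be taken as non-binding.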"}, "[2]": {"target": "Neu5Ac(a2-3)Gal(b1-4)GlcNAc(b1-6)[Gal(b1-3)]GalNAc", "how_it_was_run": "as §1"}, "[3]": {"target": "Neu5Ac(a2-3)Gal(b1-4)GlcNAc(b1-6)[Neu5Ac(a2-3)Gal(b1-3)]GalNAc", "how_it_was_run": "as §1"}, "[4]": {"target": "Neu5Ac(a2-3)Gal(b1-4)GlcNAc6S", "how_it_was_run": "as §1"}, "[5]": {"target": "Neu5Ac(a2-3)Gal(b1-4)[Fuc(a1-3)]GlcNAc", "how_it_was_run": "as §1"}, "[6]": {"target": "Neu5Ac(a2-3)Gal(b1-4)[Fuc(a1-3)]GlcNAc(b1-2)Man", "how_it_was_run": "as §1"}, "[7]": {"target": "Neu5Ac(a2-3)Gal(b1-4)[Fuc(a1-3)]GlcNAc(b1-3)Gal", "how_it_was_run": "as §1"}, "[8]": {"target": "Neu5Ac(a2-3)Gal(b1-4)[Fuc(a1-3)]GlcNAc(b1-3)Gal(b1-4)GlcNAc", "how_it_was_run": "as §1"}, "[9]": {"target": "Neu5Ac(a2-3)Gal(b1-4)[Fuc(a1-3)]GlcNAc(b1-3)Gal(b1-4)[Fuc(a1-3)]GlcNAc(b1-3)Gal(b1-4)[Fuc(a1-3)]GlcNAc", "how_it_was_run": "as §1"}, "[10]": {"target": "Neu5Ac(a2-3)Gal(b1-4)[Fuc(a1-3)]GlcNAc(b1-3)GalNAc", "how_it_was_run": "as §1"}, "[11]": {"target": "Neu5Ac(a2-3)Gal(b1-4)[Fuc(a1-3)]GlcNAc(b1-6)[Gal(b1-3)]GalNAc", "how_it_was_run": "as §1"}, "[12]": {"target": "Neu5Ac(a2-3)Gal(b1-4)[Fuc(a1-3)]GlcNAc(b1-6)[Neu5Ac(a2-3)Gal(b1-3)]GalNAc", "how_it_was_run": "as §1"}, "[13]": {"target": "Neu5Ac(a2-3)Gal(b1-4)[Fuc(a1-3)]GlcNAc6S", "how_it_was_run": "as §1"}, "[14]": {"target": "Neu5Ac(a2-3)Gal6S(b1-4)GlcNAc", "how_it_was_run": "as §1"}, "[15]": {"target": "Neu5Ac(a2-3)Gal6S(b1-4)[Fuc(a1-3)]GlcNAc", "how_it_was_run": "as §1"}, "Neu5Ac(a2-3)GalNAc": {"target": "Neu5Ac(a2-3)GalNAc", "how_it_was_run": "as §1"}, "[16]": {"target": "Neu5Ac(a2-3)GalNAc(b1-4)GlcNAc", "how_it_was_run": "as §1"}, "[17]": {"target": "Neu5Ac(a2-3)[GalNAc(b1-4)]Gal(b1-4)Glc", "how_it_was_run": "as §1"}, "[18]": {"target": "Neu5Ac(a2-3)[GalNAc(b1-4)]Gal(b1-4)GlcNAc", "how_it_was_run": "as §1"}, "[19]": {"target": "Neu5Ac(a2-3)[GalNAc(b1-4)]Gal(b1-4)GlcNAc(b1-3)GalNAc", "how_it_was_run": "as §1"}, "[20]": {"target": "Neu5Ac(a2-3)[Neu5Ac(a2-6)]GalNAc", "how_it_was_run": "as §1"}, "Neu5Ac(a2-6)Gal": {"target": "Neu5Ac(a2-6)Gal", "how_it_was_run": "as §1"}, "[21]": {"target": "Neu5Ac(a2-6)Gal(b1-3)GlcNAc(b1-3)[Gal(b1-4)GlcNAc(b1-6)]Gal(b1-4)Glc", "how_it_was_run": "as §1"}, "Neu5Ac(a2-6)Gal(b1-4)Glc": {"target": "Neu5Ac(a2-6)Gal(b1-4)Glc", "how_it_was_run": "as §1"}, "[22]": {"target": "Neu5Ac(a2-6)Gal(b1-4)GlcNAc", "how_it_was_run": "as §1"}, "[23]": {"target": "Neu5Ac(a2-6)Gal(b1-4)GlcNAc(b1-2)Man", "how_it_was_run": "as §1"}, "[24]": {"target": "Neu5Ac(a2-6)Gal(b1-4)GlcNAc(b1-2)Man(a1-3)Man(b1-4)GlcNAc(b1-4)GlcNAc", "how_it_was_run": "as §1"}, "[25]": {"target": "Neu5Ac(a2-6)Gal(b1-4)GlcNAc(b1-2)Man(a1-3)[Gal(b1-4)GlcNAc(b1-2)Man(a1-6)]Man(b1-4)GlcNAc(b1-4)GlcNAc", "how_it_was_run": "as §1"}, "[26]": {"target": "Neu5Ac(a2-6)Gal(b1-4)GlcNAc(b1-2)Man(a1-3)[GlcNAc(b1-4)][Neu5Ac(a2-6)Gal(b1-4)GlcNAc(b1-2)Man(a1-6)]Man(b1-4)GlcNAc(b1-4)GlcNAc", "how_it_was_run": "as §1"}, "[27]": {"target": "Neu5Ac(a2-6)Gal(b1-4)GlcNAc(b1-2)Man(a1-3)[Man(a1-6)]Man(b1-4)GlcNAc(b1-4)GlcNAc", "how_it_was_run": "as §1"}},
  "note": "This is one part of the list.",
  "data": [
    {"binder": "B1", "values": [
      {"measurement": "glycan array binding signal (z-score)", "setting": "[1]", "result": -0.505},
      {"measurement": "glycan array binding signal (z-score)", "setting": "[2]", "result": -0.087},
      {"measurement": "glycan array binding signal (z-score)", "setting": "[3]", "result": -0.5},
      {"measurement": "glycan array binding signal (z-score)", "setting": "[4]", "result": -0.511},
      {"measurement": "glycan array binding signal (z-score)", "setting": "[5]", "result": 0.582},
      {"measurement": "glycan array binding signal (z-score)", "setting": "[6]", "result": 0.573},
      {"measurement": "glycan array binding signal (z-score)", "setting": "[7]", "result": 1.41},
      {"measurement": "glycan array binding signal (z-score)", "setting": "[8]", "result": 1.28},
      {"measurement": "glycan array binding signal (z-score)", "setting": "[9]", "result": 2.56},
      {"measurement": "glycan array binding signal (z-score)", "setting": "[10]", "result": -0.303},
      {"measurement": "glycan array binding signal (z-score)", "setting": "[11]", "result": -0.309},
      {"measurement": "glycan array binding signal (z-score)", "setting": "[12]", "result": -0.382},
      {"measurement": "glycan array binding signal (z-score)", "setting": "[13]", "result": 0.393},
      {"measurement": "glycan array binding signal (z-score)", "setting": "[14]", "result": 0.253},
      {"measurement": "glycan array binding signal (z-score)", "setting": "[15]", "result": 0.032},
      {"measurement": "glycan array binding signal (z-score)", "setting": "Neu5Ac(a2-3)GalNAc", "result": -0.323},
      {"measurement": "glycan array binding signal (z-score)", "setting": "[16]", "result": -0.506},
      {"measurement": "glycan array binding signal (z-score)", "setting": "[17]", "result": -0.486},
      {"measurement": "glycan array binding signal (z-score)", "setting": "[18]", "result": -0.51},
      {"measurement": "glycan array binding signal (z-score)", "setting": "[19]", "result": -0.497},
      {"measurement": "glycan array binding signal (z-score)", "setting": "[20]", "result": -0.175},
      {"measurement": "glycan array binding signal (z-score)", "setting": "Neu5Ac(a2-6)Gal", "result": -0.497},
      {"measurement": "glycan array binding signal (z-score)", "setting": "[21]", "result": -0.484},
      {"measurement": "glycan array binding signal (z-score)", "setting": "Neu5Ac(a2-6)Gal(b1-4)Glc", "result": -0.498},
      {"measurement": "glycan array binding signal (z-score)", "setting": "[22]", "result": -0.499},
      {"measurement": "glycan array binding signal (z-score)", "setting": "[23]", "result": -0.491},
      {"measurement": "glycan array binding signal (z-score)", "setting": "[24]", "result": -0.495},
      {"measurement": "glycan array binding signal (z-score)", "setting": "[25]", "result": -0.153},
      {"measurement": "glycan array binding signal (z-score)", "setting": "[26]", "result": -0.504},
      {"measurement": "glycan array binding signal (z-score)", "setting": "[27]", "result": 0.098}
    ]}
  ]
}
